# Inconclusive results, whose numbers are uncertain, are shown with a selection of clear calls. Potencies of inconclusive entries are doubtful fits and often do not repeat. Active and inactive are the calls of the source. Calls come from the whole dose curve; as a rule, active = well fitted inhibition curve with a large enough effect; inconclusive = small, poorly fitted or top-dose-only effect; inactive = flat fitted curve, though single readings scatter.
# Experiment: High Content Imaging Cell-Based qHTS for Inhibitors of the mTORC1 Signaling Pathway in MEF (Tsc2-/-, p53-/-) Cells (AID 2666);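 note: percent of cells scored positive for phospho-rpS6 Ser235/236 immunostaining by imaging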
# Conditions: series mostly up to 38.3 µM
# Outline: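 Tsc2-/-, p53-/- MEFs (empty-vector stable) grown in DMEM + 10% FBS were exposed to compounds for 24 hrs at 37 degree Celsius, fixed, and stained with Alexa-488 anti-phospho-rpS6 Ser235/236 plus Hoechst. Imaging gave the percentage of positive cells per well.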
# Potency is the fitted concentration of half-maximal effect; tags give direction and shape of the fitted curve.
row,Structure (SMILES),Potency
1,CCN(CC)C(=S)SSC(=S)N(CC)CC,active: 1.85 µM
2,S=C(Nc1ccccc1)Nc1nccs1,"inconclusive: 20.7 µM [falling, single point]"
3,CCOC(=O)N1CCN(/[N+]([O-])=N/Oc2ccc([N+](=O)[O-])cc2[N+](=O)[O-])CC1,active: 13.1 µM
4,Cc1cc(O)c2c(c1)C(=O)c1cc(O)cc(O)c1C2=O,inactive
5,CCN(CC)CCCC(C)Nc1c2ccc(Cl)cc2nc2ccc(OC)cc12 (stereo not given),active: 18.5 µM
6,O=Nc1ccc2oc(=O)ccc2c1,"inconclusive: 26.1 µM [falling, single point]"
7,C[C@](N)(Cc1ccc(O)c(O)c1)C(=O)O,"inconclusive: 26.1 µM [falling, single point]"
8,Oc1ccc(O)cc1,"inconclusive: 14.7 µM [falling, single point]"
9,CSc1ccc2c(c1)C(N1CCN(C)CC1)Cc1ccccc1S2 (stereo not given),"inconclusive: 26.1 µM [falling, single point]"
10,COc1cc2nc(N3CCCN(C)CC3)nc(NC3CCN(Cc4ccccc4)CC3)c2cc1OC,active: 2.61 µM
11,O=[N+]([O-])c1ccc2c(c1)S(=O)(=O)C=C2,inactive
12,O=C(O)/C=C/c1ccc(O)c(O)c1,inactive
13,CN[C@H](CC(=O)O)C(=O)O,inactive
14,O=Nc1c(-c2c(O)[nH]c3cc(Br)ccc23)[nH]c2ccccc12,"inconclusive: 26.1 µM [falling, single point]"
15,CC(=O)/C=C1\C(=O)N(C)c2ccccc21,"inconclusive: 23.3 µM [falling, single point]"
